# In the supplement of paper PMC10670038:
# Structures can show the parent of a compound that is named as a salt. ± gives the standard deviation of the averaged measurements. Over roughly 2,000 compounds, “relative cell viability vs DMSO, compound + 0.2 uM CuET” has its median near 1; the lowest 2% begin near 0.25. The list shows a part of the results.
# Test system: TE10
# Assay: relative cell viability vs DMSO, compound + 0.2 uM CuET (fraction); TE10 is an esophageal squamous carcinoma line; higher = less cytotoxic
# Settings: 2 µM; co-treatment: CuET (bis(diethyldithiocarbamate)copper) 0.2 uM; 48 h
# Protocol: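 TE10 ESCC cells (1,000/well, 384-well plates) were treated with Selleck bioactive library compounds at 2 uM combined with 0.2 uM CuET (copper diethyldithiocarbamate) for 48 h. Viability was read by CellTiter-Glo and expressed relative to DMSO wells. Two technical replicates (A, B).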
row,Compound,relative cell viability
1,O=C(O)/C=C/c1ccc(Cn2ccnc2)cc1 [Ozagrel HCl],1.08 ± 0.076
2,O=C(O)/C=C/c1ccc(Cn2ccnc2)cc1 [Ozagrel],1.11 ± 0.059
3,COc1cc2nccc(Oc3ccc(NC(=O)C4(C(=O)Nc5ccc(F)cc5)CC4)cc3)c2cc1OC,0.916 ± 0.28
4,COc1cc2nccc(Oc3ccc(NC(=O)C4(C(=O)Nc5ccc(F)cc5)CC4)cc3)c2cc1OC [Cabozantinib malate (XL184)],1.09 ± 0.019
5,"CNC(=O)[C@H](Cc1c[nH]c2ccccc12)NC(=O)[C@@H](CC(=O)NO)CC(C)C [Ilomastat (GM6001, Galardin)]",1.09 ± 0.16
6,C[C@H]1C[C@H]2[C@@H]3CCC4=CC(=O)C=C[C@]4(C)[C@@]3(F)[C@@H](O)C[C@]2(C)[C@@]1(O)C(=O)CO [Betamethasone],1.331 ± 0.011
7,Oc1ccc(OCc2ccccc2)cc1 [Monobenzone],0.91 ± 0.0097
8,Cc1cc(/N=N/c2ccc(S(=O)(=O)Nc3ccccn3)cc2)c(N)cc1O,0.883 ± 0.028
9,COc1cc(O)c(CC=C(C)C)c(O)c1C(=O)/C=C/c1ccc(O)cc1 [Xanthohumol],0.786 ± 0.024
10,O=C(NCCO[N+](=O)[O-])c1cccnc1 [Nicorandil],1.054 ± 0.0074
11,Cc1ccc(Cl)c(Nc2ccccc2C(=O)O)c1Cl [Meclofenamate Sodium],0.9947 ± 0.0029
12,CN(C)CCOc1ccc(/C(=C(/CCCl)c2ccccc2)c2ccccc2)cc1 [Toremifene Citrate],0.893 ± 0.087
13,CCN1CCN(C(=O)N[C@@H](C(=O)N[C@@H]2C(=O)N3C(C(=O)O)=C(CSc4nnnn4C)CS[C@H]23)c2ccc(O)cc2)C(=O)C1=O [Cefoperazone],1.02 ± 0.065
14,O=C(c1cn(Cc2cncn2Cc2ccc(Br)cc2)cc1-c1cccc2ccccc12)N1CCOCC1,0.857 ± 0.025
15,CC(C)(Cc1ccc2ccccc2c1)NC[C@@H](O)COc1cccc(Cl)c1C#N,0.693 ± 0.097
16,O=C1Nc2ccc(I)cc2C1=Cc1cc(Br)c(O)c(Br)c1,1.08 ± 0.22
17,N#Cc1ccc(-c2c(-c3ncn[nH]3)sc(N3CCOCC3)c2C#N)c(F)c1,0.713 ± 0.082
18,Cn1c(=O)cc(N2CCC[C@@H](N)C2)n(Cc2cc(F)ccc2C#N)c1=O [Trelagliptin],1.17 ± 0.22
19,CC(C)(C)c1[nH]cnc1/C=c1\[nH]c(=O)/c(=C/c2ccccc2)[nH]c1=O [Plinabulin (NPI-2358)],0.753 ± 0.058
20,Cc1c(-c2ccnn2C)cc(C(=O)NCc2ccc(S(C)(=O)=O)cn2)c(=O)n1-c1cccc(C(F)(F)F)c1 [Alvelestat (AZD9668)],0.993 ± 0.044
21,CCCNC(C)C(=O)Nc1ccccc1C (configuration not stated) [Prilocaine],1.01 ± 0.051
22,Nc1ncn([C@@H]2O[C@H](CO)[C@@H](O)[C@H]2O)c(=O)n1 [Azacitidine],1.11 ± 0.15
23,CC(COc1ccccc1)N(CCCl)Cc1ccccc1 (configuration not stated) [Phenoxybenzamine HCl],1.07 ± 0.07
24,CC(=O)Nc1cccc2c1c(Sc1ccc(Cl)cc1)c(C)n2CC(=O)O,1.18 ± 0.12
25,O=C(Nc1ccc(OC(F)(F)F)cc1)c1sccc1NCc1ccnc2ccccc12,1.23 ± 0.045
26,COc1cc(/C=C/C(=O)N2CCN(CC(=O)N3CCCC3)CC2)cc(OC)c1OC [Cinepazide maleate],1.22 ± 0.016

row,Compound,relative cell viability
1,C/C=C1/[C@H](O[C@@H]2O[C@H](CO)[C@@H](O)[C@H](O)[C@H]2O)OC=C(C(=O)OC)[C@H]1CC(=O)OCCc1ccc(O)c(O)c1 [Oleuropein],1.05 ± 0.018
2,Cc1cc(=O)oc2cc(O)ccc12 [4-Methylumbelliferone (4-MU)],1.23 ± 0.043
3,COc1cccc(-c2ccc(NC(=O)C3=C(C(=O)O)CCC3)c(F)c2)c1 [Vidofludimus],1.08 ± 0.041
4,Clc1cccc(-c2nnnn2Cc2cccnc2)c1Cl,1.17 ± 0.056
5,COc1ccc(C(=O)CC2(O)C(=O)Nc3c(Cl)ccc(Cl)c32)cc1 (configuration not stated),0.97 ± 0.18
6,O=C(NC1CCN(CCCCC2(C(=O)NCC(F)(F)F)c3ccccc3-c3ccccc32)CC1)c1ccccc1-c1ccc(C(F)(F)F)cc1 [Lomitapide Mesylate],0.684 ± 0.065
7,O=C(NC1CCN(CCCCC2(C(=O)NCC(F)(F)F)c3ccccc3-c3ccccc32)CC1)c1ccccc1-c1ccc(C(F)(F)F)cc1 [Lomitapide],1.01 ± 0.13
8,CCCN[C@H]1CCc2nc(N)sc2C1 [Pramipexole],1.1 ± 0.087
9,CCCN[C@H]1CCc2nc(N)sc2C1 [Pramipexole dihydrochloride monohydrate],0.998 ± 0.074
10,CC(C)(C)Cn1c(N)nc2ccc(-c3[nH]c(C(C)(C)C)nc3-c3ccc(F)cc3)nc21,1.34 ± 0.083
11,COC1=C(OC)C(=O)C(CCCCCCCCCCO)=C(C)C1=O [Idebenone],0.993 ± 0.16
12,Cc1nc(NC(=O)N2CCC[C@H]2C(N)=O)sc1-c1csc(C(C)(C)C)n1,0.73 ± 0.077
13,O=C(Nc1c[nH]nc1-c1nc2ccc(CN3CCOCC3)cc2[nH]1)NC1CC1,0.913 ± 0.097
14,CCOC(=O)[C@H](CCc1ccccc1)N[C@H]1CCc2ccccc2N(CC(=O)O)C1=O [Benazepril HCl],1.1 ± 0.14
15,CC(C)[C@H]1C(=O)N[C@@H](CCCNC(=N)N)C(=O)NCC(=O)N[C@@H](CC(=O)O)C(=O)N[C@H](Cc2ccccc2)C(=O)N1C [Cilengitide],0.929 ± 0.065
16,O=C(c1cccc(Cl)c1F)N1CCN(Cc2cccc(Nc3nccs3)n2)CC1,1.121 ± 0.0073
17,COc1cc(OC)c2c(=O)[nH]c(-c3cc(C)c(OCCO)c(C)c3)nc2c1,0.819 ± 0.058
18,CC(C)(C)NC[C@H](O)COc1nsnc1N1CCOCC1 [Timolol Maleate],1.19 ± 0.037
19,O=C(Nc1cccc2c(=O)cc(-c3nnn[nH]3)oc12)c1ccc(OCCCCc2ccccc2)cc1 [Pranlukast],0.94 ± 0.14
20,Nc1nc(Cl)nc2c1ncn2[C@@H]1O[C@H](CO)[C@@H](O)[C@@H]1F [Clofarabine],0.823 ± 0.0099
21,CN1CC[C@H](c2c(O)cc(O)c3c(=O)cc(-c4ccccc4Cl)oc23)[C@H](O)C1 [Flavopiridol (Alvocidib)],0.444 ± 0.28
22,CN1CC[C@H](c2c(O)cc(O)c3c(=O)cc(-c4ccccc4Cl)oc23)[C@H](O)C1 [Flavopiridol HCl],0.414 ± 0.25
23,COc1ccc(-c2cc(=O)c3c(O)cc(O)cc3o2)cc1O [Diosmetin],0.923 ± 0.036
24,CC(C)NCC(O)COc1ccc(COCCOC(C)C)cc1 (configuration not stated) [Bisoprolol fumarate],1.13 ± 0.065
25,O=C1CN2Cc3c(ccc(Cl)c3Cl)N=C2N1 [Anagrelide HCl],1.03 ± 0.11
26,Nc1nc(F)nc2c1ncn2[C@@H]1O[C@H](CO)[C@@H](O)[C@@H]1O [Fludarabine],0.478 ± 0.0057

row,Compound,relative cell viability
1,CC[C@H]1OC(=O)[C@H](C)[C@@H](O[C@H]2C[C@@](C)(OC)[C@@H](O)[C@H](C)O2)[C@H](C)[C@@H](O[C@@H]2O[C@H](C)C[C@H](N(C)C)[C@H]2O)[C@](C)(O)C[C@@H](C)/C(=N\OCOCCOC)[C@H](C)[C@@H](O)[C@]1(C)O [Roxithromycin],1.14 ± 0.086
2,CC(=O)N1c2ccc(-c3ccc(C(=O)O)cc3)cc2[C@H](Nc2ccc(Cl)cc2)C[C@@H]1C,0.508 ± 0.061
3,O=C(NCCS(=O)(=O)c1ccc(C(F)(F)F)cn1)c1ccc(Cl)cc1,1.24 ± 0.019
4,CC(C)CC(=O)Nc1n[nH]c2c1CN(C(=O)C1CCN(C)CC1)C2(C)C,0.844 ± 0.036
5,C=C1CC[C@H](O)C/C1=C/C=C1\CCC[C@]2(C)[C@@H]([C@H](C)CCCC(C)(C)O)CC[C@@H]12 [Calcifediol],0.925 ± 0.055
6,NC(CO)(CO)CO [Trometamol],1.157 ± 0.011
7,O=c1ncccn1[C@@H]1O[C@H](CO)[C@@H](O)[C@H]1O [Zebularine],1.17 ± 0.075
8,O=C(CCCCCCNC(=O)c1cnc(N(c2ccccc2)c2ccccc2)nc1)NO [Rocilinostat (ACY-1215)],0.8907 ± 0.0072
9,CC(C)n1nc(-c2cc3cc(O)ccc3[nH]2)c2c(N)ncnc21,0.742 ± 0.033
10,NC(=O)N1c2ccccc2C=Cc2ccccc21 [Carbamazepine],1.15 ± 0.031
11,C=CC(=O)N1CCN(C(=O)CNc2cc(I)c(Cl)cc2O)CC1 [K-Ras(G12C) inhibitor 12],1.06 ± 0.13
12,Clc1ccc(C(Cn2ccnc2)OCc2c(Cl)cccc2Cl)c(Cl)c1 (configuration not stated) [Isoconazole nitrate],0.829 ± 0.086
13,O=c1cc(-c2ccc(O)cc2)oc2cc(O)cc(O)c12 [Apigenin],1.02 ± 0.037
14,C[C@@H](N)[C@H]1CC[C@H](C(=O)Nc2ccncc2)CC1,1.22 ± 0.072
15,COc1ccc2cc(CCC(C)=O)ccc2c1 [Nabumetone],1.12 ± 0.14
16,C[C@H]1[C@@H](O)O[C@@H]2O[C@@]3(C)CC[C@H]4[C@H](C)CC[C@@H]1[C@@]24OO3 [Dihydroartemisinin (DHA)],0.8267 ± 0.0056
17,COc1ccc(-c2oc3c(CC=C(C)C)c(O[C@@H]4O[C@H](CO)[C@@H](O)[C@H](O)[C@H]4O)cc(O)c3c(=O)c2O[C@@H]2O[C@@H](C)[C@H](O)[C@@H](O)[C@H]2O)cc1 [Icariin],1.224 ± 0.0063
18,CCn1cc(C(=O)O)c(=O)c2ccc(C)nc21 [Nalidixic acid],1.12 ± 0.059
19,CN(C)c1ccc(C(=O)NCCCCCCC(=O)NO)cc1,0.322 ± 0.042
20,CCO[C@@H]1OC(=O)C[C@@H]1NC(=O)[C@@H]1CCCN1C(=O)[C@@H](NC(=O)c1ccc(N)c(Cl)c1)C(C)(C)C,1.08 ± 0.081
21,O=C(CCCN1CC=C(n2c(=O)[nH]c3ccccc32)CC1)c1ccc(F)cc1 [Droperidol],1.1 ± 0.06
22,COc1nc(C)nc(Cl)c1NC1=NCCN1 [Moxonidine],0.994 ± 0.034
23,Cc1ccc(NC(=O)c2ccc(CN3CCN(C)CC3)cc2)cc1Nc1nc(-c2cccnc2)cs1 [Masitinib (AB1010)],1.2 ± 0.03
24,CCCC[C@@H](C=O)NC(=O)[C@H](CC(C)C)NC(=O)OCc1ccccc1 [Calpeptin],1.12 ± 0.036
25,O=C(Nc1cc(C(F)(F)F)ccc1N1CCCCC1)c1ccncc1,1.073 ± 0.0082
